Laboratory results as given in the supplement of paper PMC10126150.
Sequences with one replicate were seen in a single cluster, so their values are uncertain.

System: ATP
Test: switch fluorescence ratio, 500 uM ATP over buffer (Cy3 cluster intensity, sum of 5 cycles each) (fold (ratio)); higher = stronger signal-on switching upon ATP binding; sequences stand for … in TCGTCGGCAGCGTCAGATGTGTATAAGAGACAGTTTTTTTTTTTTTTTTTTTTTTTTT…TC
Settings: aptamer strand: ATP DNA aptamer (quencher-CACCTGGGGGAGTATTGCGGAGGAAGG + anchor), 100 nM annealed; ATP concentration: 500 uM; one replicate
Outline: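 For every switch-domain sequence, the fluorescence ratio is the mean of per-cluster values, each being summed target-cycle Cy3 intensity over summed buffer-cycle Cy3 intensity. Clusters outside 100-1000 RFU were excluded. On a modified Illumina MiSeq flow-cell, the Cy3-labelled switching-strand clusters were annealed to 100 nM quencher-labelled ATP aptamer, imaged in selection buffer and then after 15 min with 500 uM ATP at 22 °C. Five such cycles were run, with NaOH stripping and re-annealing between them.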
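Note: ATP exposure 15 min at 22 °C before imaging.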

Sequence	switch fluorescence ratio
GCGAGAGCGT	1.04
TCGTCATTGG	1.01
TTCACGTATT	1.2
TATTCTCAGG	1.07
ACTTACGGGA	1.31
CCTAAAAAAC	1.18
GTTCTAGCTG	0.982
ATCAGGAGGT	1.05
TTTTAGTGAT	0.981
CATCGGGTCT	1.18
TCCTCGTCGG	1.19
CTCGTCGACA	0.985
CACAACTAGG	1.11
AGTTTAGGAT	0.953
ACATCTCTTA	1.04
TGTGGCCGAT	0.993
TGGCAGACCA	0.992
ATCATGTTGT	1.02
AAATGTCATA	1.01
GGTGTCGCA	1
CAGGATAAAA	0.993
GCACCCTAGG	1.28
AGTCTGCGGT	0.998

Sequence	switch fluorescence ratio
TAGCTCCCCC	1.04
TCATTGATGT	1
AGGGGACCAT	0.975
GGATTATGAT	0.999
CGTTCGTTGC	1.17
CGTCGTCACC	1.07
CGAGAGAGA	0.976
GTCTTTCAGG	0.98
AGCATATTTT	1.04
GCCGGCCCAG	1.01
GTGTCCAGTC	1.03
GTTTGAGTGC	1.03
TATAAGGTTA	0.967
TCATACTAAC	1.14
TAGAATAACA	0.99
GTGGGTGGCA	0.978
GAAATGTCTT	0.957
TTCCGTAAAG	1.01
CCCCGAACTC	2.81
TTCGCTGTAG	1.08
TACTATAAGC	1.07
TTAATATGTT	1.02
TTTTCTT	0.999

Sequence	switch fluorescence ratio
AAGTGCGGTT	1.04
CACGCTAACC	1.39
TGAGCTAAGA	0.999
GGGTGTTTCA	1.03
ATTCTGGTTG	1
TTTCTTAGAC	1.02
CTAACCTGGA	1.31
GTTGATATTG	1.07
AATCAACGAG	1.01
TAATGCGGAA	1.08
TTATAAAAAT	1.02
CGAATTTCTG	1.01
ATAGCTGTCG	1.07
TCAGTAGTAG	1.04
TTGTGAGCGG	1.16
GATCGCCCGG	1.08
GCTTATGAGT	0.957
CGTATACGCT	0.955
GGATTGTGCC	1.03
CGGGTTGAGT	0.989
CTTCAGACTA	0.988
TGTTTGAGAG	1.04
GATGGGATCA	0.948

Sequence	switch fluorescence ratio
CAGATCCAGG	1.14
AGCATAATCC	1.85
TAATAGCCGT	1.01
CCTGGCAGGC	1.25
CCCGATGCCC	1.29
TAGCCTGATC	1.16
GTAACTCATA	1.03
GACACTGACT	1.3
GGTGCCTCGT	1.04
AAAGACGCGT	0.984
CCGGGGGTAT	1.01
GTATTATGAG	0.987
ATGAGGATTG	0.997
ATCTTCGTAC	1.15
AATCGAATAC	2.25
CCCGACCTAC	4.12
TTGAGGCTGG	1.02
CTTTCTGTTT	1.04
CTTGATAAAC	1.03
GTTTGCGGAG	0.987
ACGGTAGCAT	1.06
CTGGGTGAGG	1.01
CATAATCTGA	0.986

Sequence	switch fluorescence ratio
CCGGGGCATT	2.01
ACCGAATTGA	1.03
ACCAGTGCGA	1.06
ACTCGACGGA	1.06
GCCAAAACCG	1.05
AAATGACCGA	1.18
GAACCCGAGC	1.07
TTATCAGAG	1.08
TGAGCTTTGT	0.971
AAGAAAGAG	1
GAGATTAGAT	0.991
TAAACCTTAA	1.69
GGGGTACG	1
TTACTGGCCT	1.07
TATTGAGATT	0.972
ATGCAGGAAT	0.981
GCGATCCCGT	1.04
CTTCGTCTTC	0.993
ACAGCGGGAT	1.03
TCCAGCTTAT	1.05
CCATGCAAGT	1.39
GAGAGAAGCC	1
TATTCGTAA	1.04

Sequence	switch fluorescence ratio
GTGTAATCCC	0.991
GGGGGGCCC	0.969
GACGGCCATG	1.03
GTGTAAACGA	1.01
CCCGAGGTTT	1.09
CAGAGATGGA	0.987
TCAGGCTTTT	0.989
AGATTATATG	0.979
TACTATGTAT	0.971
GAATCTCGTA	1.02
CATTATGTAG	1.01
GGAGCGTCTG	1.03
CATGCGGGA	1.08
GAATAAGAAT	1.04
GTAATATATG	0.981
TGCTTTAGAG	0.994
TGCACTTTAA	1.03
CGACATCACG	1.4
CGAAAAAGAA	1
AGCAAAG	1.33
TGGGCGAGAT	1.01
TACTACACGG	1.43
GCCCGTTTGC	1.03

Sequence	switch fluorescence ratio
AAGTGGTCGA	0.973
GGAGTAATTC	2.3
TCGAGGCGCT	0.971
CTTTTAAAG	0.986
AGGGCGAGTG	0.975
CACGGTGTGA	1
GATGAAGAAT	1.01
AAGGGTCTGT	0.965
GACTACGAGT	1.06
GGTTAGGATT	1.03
ATATCGAGTG	1.01
TGACCCCTTG	1.03
CGACAGCG	0.991
TAGCGTTC	1.04
TCAGAACTGT	0.977
TCACCGGCCA	1.09
CAGCTAAGG	1.05
TTAAGTTAAA	1.07
ACACATGGCG	0.981
